Test results published in the RNAGym collection of RNA variant scans (doi:10.7554/elife.90254).
Read counts are not given, so values of variants with three or more changes are uncertain.

B1: LINE1-mini (parent)
chain: GGCAGAGCUCAACACAGCGUGGCAAAGUGGCUGUGGCUAGACUGCC

Variants of: B1
Test: self-cleavage, relative activity (ratio to wild type); higher = more cleavage; in vitro, sequencing; the parent is a self-cleaving ribozyme

Row | Variant | self-cleavage
1 | G27A G35A U38G | 0.03
2 | A4C A16U U20A G35U | 0.18
3 | U28C G35A C37U | 0.04
4 | G5C C13G C15G U20A C31G | 0.01
5 | G5U A26C U28A C46G | 0.01
6 | A4C A24U C45U | 0.18
7 | A11C C15A C23G G40A | 0.02
8 | A4G A6U G22A U38A | 0.04
9 | G1U G7U G30U G33A | 0.14
10 | U9G G21U G33A C37U | 0.03
11 | G7U C10U C13A G19C A25U U38G A41U | 0.01
12 | A25U G33A G36U | 0.02
13 | C13A A16C G19U C31U G40U | 0.01
14 | C18U U38G U43C | 0.02
15 | U9C A26G G36U | 0.03
16 | C8A A14G G33C A39G | 0.02
17 | A4U G27C G40A | 0.06
18 | G30U A41C G44U | 0.04
19 | C8G G17U C18A U38G C45G C46G | 0.01
20 | A12C A24G C37G | 0.03
21 | C10U A24G A25C U28C | 0.08
22 | C8G C23A A26G U38C U43C G44A | 0.01
23 | G21U A25U C31G | 0.05
24 | G5A G30A G33C G40A U43A | 0.03

Row | Variant | self-cleavage
25 | G5C C8U A12G C45A | 0.06
26 | A16G G27U G40C | 0.05
27 | C23U U32A G40A | 0.06
28 | G2U G17A G35U G44C | 0.03
29 | U20C C45G C46G | 0.05
30 | A6C G22A C42A C46U | 0.03
31 | G7C C13A C15A | 0.05
32 | U9C C31U C45A | 0.01
33 | C10G G19C G27A U32G U34A C46U | 0.01
34 | G5A G7C G17A G19U | 0.15
35 | G2A G5A U43A | 0.65
36 | G1C A6C C45A | 0.1
37 | G1U C18A C37U U38C C42G | 0.02
38 | G5U C10U G17C G19U | 0.04
39 | A14C C15U C46A | 0.09
40 | C3G A16G U43C C46G | 0.03
41 | G5A C13U C18U | 0.08
42 | C13U G30C C31G G35U C42U | 0.03
43 | C10U U38G U43A | 0.05
44 | G2U G5U A14C C15U | 0.01
45 | C8G G17A G30A C45U | 0.06
46 | U9A A26U C31A G40U | 0.01
47 | G1A A11C A25G | 0.05
48 | G35C A39C C45A | 0.05

Row | Variant | self-cleavage
49 | U9A A14C C18A G30C U34A C42A | 0.02
50 | C8A C13U C15A G29C C37U | 0.35
51 | C8U A25U C46G | 0.24
52 | C15U C23U U43A | 0.07
53 | C10A G27U U28A G36U | 0.01
54 | C8A A26G A39U | 0.06
55 | A25C G27C G29A C31A | 0.06
56 | A16G G22U U28G C46A | 0
57 | G19U G29U U38A | 0.13
58 | G2A C18A U28A G30U G44U | 0.36
59 | G5A C13U A16C G27A | 0.1
60 | U28G G29C G40C | 0
61 | C8G G35C G44A | 0.02
62 | C8U A12U G17U A41G C45A | 0.02
63 | G2C G21C G44C | 0.16
64 | A11C G40C C42A | 0.01
65 | A14C A41G C42U | 0.05
66 | A4U C8G G17A G19U A39C U43A G44A | 0.01
67 | G1U A6U C13U G17U G22C | 0.06
68 | C37U A39C C45A | 0
69 | G5U G7C C13U A16U | 0.02
70 | A4U U9C C13G A26C C45A | 0.02
71 | A4U G22A U32A | 0.04
72 | A4C A25C G36C | 0.09

Row | Variant | self-cleavage
73 | A11U G17C G19U U20A G27U U34A | 0.01
74 | A6G C31G G40A | 0.04
75 | G7A C8A U34C G35C G36U | 0.07
76 | C15U G21U U28C C42G C46A | 0.02
77 | A6U G17U U20C C37U | 0.04
78 | A6U C18A U43A | 0.05
79 | G2U A24G A39U | 0
80 | A26G C37U G40U | 0.19
81 | C3A A11G G19U A39G G44A | 0.03
82 | A12C C18A U32G | 0.01
83 | G22C C42A C46A | 0.08
84 | C18A G30C G33C | 0.07
85 | G5U A24C G27U | 0.01
86 | G2A U38G C42U | 0.11
87 | A4G C13U A25C | 0.63
88 | A26U U32C U34A | 0.05
89 | U9C C18G G22U U32G | 0.02
90 | G7A C10A G19U G27A C37A | 0.02
91 | G7C A11C G17C U28A G36U | 0.01
92 | C8U A12C C15U A16U U20C G33C G35A C37A | 0.01
93 | G5U A26C G33U | 0.02
94 | C18U G19C G22U C42U G44A | 0.02
95 | G1U A16U G17U G27A U34C | 0.08
96 | G5C A11G C45U | 0.04

Row | Variant | self-cleavage
97 | A4G A6C C37G G44U | 0.37
98 | C31A C37U A41C | 0.02
99 | G2C G27U G33U U34A | 0.04
100 | G2C A11U C42A | 0.01
101 | G1A C18G U32G G35C | 0.04
102 | G2U C8A A14C G27U | 0.03
103 | A12U C18U G19A | 0.17
104 | C10U C13G G17C G22U G35A | 0.03
105 | G5U G33C C42U U43C | 0.03
106 | G22C C23A A39U | 0.44
107 | G2C C23G A39C | 0.11
108 | C8G A14C C23U G35U | 0.07
109 | U9G A12U G17C A25U G40U | 0.07
110 | G33U G36U U43C C45U | 0.05
111 | G7U G27U A41G G44C | 0.22
112 | G5C G27A C31A C37G C45G | 0.05
113 | C15U G22U A25U | 0.4
114 | C3G G5U G7A | 0.24
115 | G2C C8U C13A G17U | 0.3
116 | G7U G22U A25G U34G | 0.08
117 | A25C G35A C42G | 0.02
118 | G1C C3G U20A G29C | 0.07
119 | G2U A16U U20G U28G U38A | 0.01
120 | C15G G29U C37U | 0.05

Row | Variant | self-cleavage
121 | C3A C18A A25C G36C G40U | 0.05
122 | A6G C10U G29U U32G | 0.01
123 | U9A A26U U28A | 0.04
124 | A6G A14C C18A G27C | 0.04
125 | C8U A11C G30A | 0.03
126 | A6U C10G C42U | 0
127 | G2A C31A G35U | 0.11
128 | G19U C23G U32C | 0.06
129 | G2C G19A C23A G35U G36U | 0.91
130 | A6G G7A U20A G30U | 0.16
131 | G2A A6U C8U U43A | 0.13
132 | U9A G35A C45U | 0.07
133 | C15A G17U G30C C45A | 0.01
134 | A11G U28C G30U | 0.01
135 | A4G G7C G40U | 0.1
136 | U9A A12C C13U A14U G17C U28A C46U | 0.02
137 | G7U A14C C18A U20A | 0.1
138 | C23G U28C G36C A39C | 0.02
139 | G1U U34G U38A A39C | 0.07
140 | U9A G21U G22C C31U U34A G36U C37A U43G | 0.02
141 | G1A G2A A4G A12G G33U C42G G44A | 0.07
142 | G5C C23G U34A | 0.04
143 | C8A G27U U32C C37U | 0.01
144 | G17U A24C C46G | 0.13

Row | Variant | self-cleavage
145 | C10A C18A G36C | 0.01
146 | G5U G17A U28A G36U G44C | 0
147 | U28G C37A C46A | 0.04
148 | A26U C31A G44C | 0.03
149 | C8A A14U G17A A39G | 0.36
150 | C15U G17U U38G | 0.06
151 | U20C G36C A41C | 0.02
152 | C3A C23G C37U C42A | 0.25
153 | A12U U20G G27U G44C | 0.04
154 | C10A C23U A39C G44C C46G | 0.06
155 | G1A C18G A24U C31A | 0.13
156 | C10U U28G U38C | 0.18
157 | G2C C31U U32C | 0.23
158 | G5A A26G G44C | 0.07
159 | A6G G19A C23U G27U G30U | 0.06
160 | A6U G22U A41G | 1.22
161 | C15A U20G C46G | 0.05
162 | G5C C13U G27A U32G A39U | 0.02
163 | G7C C10U A14G G22A G33U | 0.1
164 | A4C C13U U32G A39U G44U | 0.03
165 | G5U G27U G33A G44C | 0.01
166 | A6G C15G G21A A39C C42A U43G | 0.04
167 | C10U G40C G44A | 0.06
